# The campaign covered roughly 310,000 compounds. About 2,200 (0.71%) showed an effect of 50% or more. Effects have a minus sign here. Some of the results follow.
# Molecular target: human ether-à-go-go-related gene (hERG) potassium channel (human, UniProt Q12809)
# Assay: primary screen, population patch clamp on CHO cells stably expressing hERG
# Chain of human ether-à-go-go-related gene (hERG) potassium channel (Q12809 whole entry, looked up): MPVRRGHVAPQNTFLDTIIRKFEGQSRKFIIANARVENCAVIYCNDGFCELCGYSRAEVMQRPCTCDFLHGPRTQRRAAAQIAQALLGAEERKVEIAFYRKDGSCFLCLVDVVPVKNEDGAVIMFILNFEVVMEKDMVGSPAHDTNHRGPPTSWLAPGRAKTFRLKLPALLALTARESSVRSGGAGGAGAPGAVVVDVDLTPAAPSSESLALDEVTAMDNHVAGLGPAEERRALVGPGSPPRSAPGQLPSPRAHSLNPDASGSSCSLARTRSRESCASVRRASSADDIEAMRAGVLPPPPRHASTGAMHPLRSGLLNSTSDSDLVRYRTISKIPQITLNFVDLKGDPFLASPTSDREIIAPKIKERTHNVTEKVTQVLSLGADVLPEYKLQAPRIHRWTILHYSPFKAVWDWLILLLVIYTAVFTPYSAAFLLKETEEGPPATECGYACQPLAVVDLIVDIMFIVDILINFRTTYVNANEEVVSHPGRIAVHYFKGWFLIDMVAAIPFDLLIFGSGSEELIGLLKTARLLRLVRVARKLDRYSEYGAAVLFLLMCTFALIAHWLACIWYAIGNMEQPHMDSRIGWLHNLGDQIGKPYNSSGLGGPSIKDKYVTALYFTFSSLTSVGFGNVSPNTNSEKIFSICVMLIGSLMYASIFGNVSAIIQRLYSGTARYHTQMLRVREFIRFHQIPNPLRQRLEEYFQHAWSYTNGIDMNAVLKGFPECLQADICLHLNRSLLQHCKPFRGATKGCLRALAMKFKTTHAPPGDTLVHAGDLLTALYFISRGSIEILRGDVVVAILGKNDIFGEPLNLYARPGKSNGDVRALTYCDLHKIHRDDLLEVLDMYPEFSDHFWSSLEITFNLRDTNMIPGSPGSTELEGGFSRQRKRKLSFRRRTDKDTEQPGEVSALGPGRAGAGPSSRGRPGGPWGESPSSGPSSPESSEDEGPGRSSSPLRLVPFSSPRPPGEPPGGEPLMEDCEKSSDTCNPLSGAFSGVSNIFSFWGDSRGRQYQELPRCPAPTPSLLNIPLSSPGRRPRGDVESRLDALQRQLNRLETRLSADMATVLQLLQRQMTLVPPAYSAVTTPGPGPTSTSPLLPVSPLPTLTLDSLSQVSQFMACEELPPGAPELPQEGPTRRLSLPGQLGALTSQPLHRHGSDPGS
row,Structure (SMILES),"hERG current change (%, negative = inhibition) at 1uM"
1,CNC(=O)c1ccc(-c2sc3nc(N4CCOCC4)c4c(c3c2N)CC(C)(C)OC4)o1,11%
2,O=C(NCC(c1ccc(F)cc1)N1CCOCC1)c1c(F)cccc1F (stereo not drawn),10.7%
3,COc1cc(/C=N/n2c(C)n[nH]c2=S)ccc1OCc1ccc(F)cc1,2.53%
4,CCOCCCNC(=O)C(NC(=O)c1ccc(NC(C)=O)cc1)c1ccc(OC)cc1 (stereo not drawn),2.72%
5,CCCCN1CNC(=S)N(c2ccc(C(=O)OCC)cc2)C1,10.3%
6,COCCCNC(=S)N/N=C/c1ccc2ccccc2c1,7.25%
7,CCOc1ccc(C(=O)NCC(=O)OCC(=O)Nc2ccccc2OCC)cc1,9.86%
8,Cc1cc(OCC(=O)NCc2ccccn2)c2c(C)c(Cc3ccccc3)c(=O)oc2c1,8.53%
9,O=C1CC(=O)C(n2cncn2)C(c2ccc(Cl)cc2Cl)C1 (stereo not drawn),12.3%
10,O=C(Cn1c(=O)c2c3c(sc2n(Cc2ccccc2)c1=O)CCCC3)NCCO,13.8%
11,CC(=O)Nc1ccc(NC(=O)CSc2nnc(-c3cccs3)n2N)cc1,7.75%
12,CC1=C(C(=O)OC2CCC(C)CC2)C(c2ccc(O)c([N+](=O)[O-])c2)NC(=O)N1 (stereo not drawn),11.4%
13,Nc1cc(N)cc(-c2nc3ccccc3o2)c1,12.7%
14,Cc1cc(/C=C(\C#N)C(=O)N2CCCCC2)cc(C)c1O,4.54%
15,c1ccc2oc(-c3ccc4nc[nH]c4c3)nc2c1,10.9%
16,CC(C)(C)C(=O)Nc1ccc(C(=O)NNC(=O)Cc2ccccc2)cc1,11%
17,COc1ccc(-c2nc(N)ncc2-c2csc(C)n2)c(O)c1,10.4%
18,CCOc1ccc(CNC(=O)C(C)n2ccc3cc(S(=O)(=O)N4CCCC4)ccc32)cc1 (stereo not drawn),15.4%
19,O=C(CSc1nnc(-c2cnccn2)n1Cc1ccco1)c1ccccc1,-15.5%
20,CS(=O)(=O)Nc1ccc(C(=O)NCCSCc2c(F)cccc2Cl)cc1,-11.9%
21,Cc1nc2ccc(NC(=O)c3c(-c4ccccc4)noc3C)cc2s1,0.677%
22,Cc1ccc(S(=O)(=O)C2(C(=O)N3CCN(c4cc(C)ccc4C)CC3)CC2)cc1,-2.08%
23,COc1cccc(NC(=S)Nc2ccc(O)cc2)c1,10.1%
24,O=C(NCc1ccccc1)c1cccc(S(=O)(=O)N2CCOCC2)c1,7.92%
